Reference: PMC3656144
No constants are given. Whether binding was seen depends on the method and setting. Binding seen in cells or lysates may run through a third protein. Some results given as binding are weak or reduced against the parent protein; the word gives no strength. Where a sequence is shown, tags or fusion partners need not be part of it.

The chains behind the UniProt entries cited, without tags or fusion partners.
UniProt P34574: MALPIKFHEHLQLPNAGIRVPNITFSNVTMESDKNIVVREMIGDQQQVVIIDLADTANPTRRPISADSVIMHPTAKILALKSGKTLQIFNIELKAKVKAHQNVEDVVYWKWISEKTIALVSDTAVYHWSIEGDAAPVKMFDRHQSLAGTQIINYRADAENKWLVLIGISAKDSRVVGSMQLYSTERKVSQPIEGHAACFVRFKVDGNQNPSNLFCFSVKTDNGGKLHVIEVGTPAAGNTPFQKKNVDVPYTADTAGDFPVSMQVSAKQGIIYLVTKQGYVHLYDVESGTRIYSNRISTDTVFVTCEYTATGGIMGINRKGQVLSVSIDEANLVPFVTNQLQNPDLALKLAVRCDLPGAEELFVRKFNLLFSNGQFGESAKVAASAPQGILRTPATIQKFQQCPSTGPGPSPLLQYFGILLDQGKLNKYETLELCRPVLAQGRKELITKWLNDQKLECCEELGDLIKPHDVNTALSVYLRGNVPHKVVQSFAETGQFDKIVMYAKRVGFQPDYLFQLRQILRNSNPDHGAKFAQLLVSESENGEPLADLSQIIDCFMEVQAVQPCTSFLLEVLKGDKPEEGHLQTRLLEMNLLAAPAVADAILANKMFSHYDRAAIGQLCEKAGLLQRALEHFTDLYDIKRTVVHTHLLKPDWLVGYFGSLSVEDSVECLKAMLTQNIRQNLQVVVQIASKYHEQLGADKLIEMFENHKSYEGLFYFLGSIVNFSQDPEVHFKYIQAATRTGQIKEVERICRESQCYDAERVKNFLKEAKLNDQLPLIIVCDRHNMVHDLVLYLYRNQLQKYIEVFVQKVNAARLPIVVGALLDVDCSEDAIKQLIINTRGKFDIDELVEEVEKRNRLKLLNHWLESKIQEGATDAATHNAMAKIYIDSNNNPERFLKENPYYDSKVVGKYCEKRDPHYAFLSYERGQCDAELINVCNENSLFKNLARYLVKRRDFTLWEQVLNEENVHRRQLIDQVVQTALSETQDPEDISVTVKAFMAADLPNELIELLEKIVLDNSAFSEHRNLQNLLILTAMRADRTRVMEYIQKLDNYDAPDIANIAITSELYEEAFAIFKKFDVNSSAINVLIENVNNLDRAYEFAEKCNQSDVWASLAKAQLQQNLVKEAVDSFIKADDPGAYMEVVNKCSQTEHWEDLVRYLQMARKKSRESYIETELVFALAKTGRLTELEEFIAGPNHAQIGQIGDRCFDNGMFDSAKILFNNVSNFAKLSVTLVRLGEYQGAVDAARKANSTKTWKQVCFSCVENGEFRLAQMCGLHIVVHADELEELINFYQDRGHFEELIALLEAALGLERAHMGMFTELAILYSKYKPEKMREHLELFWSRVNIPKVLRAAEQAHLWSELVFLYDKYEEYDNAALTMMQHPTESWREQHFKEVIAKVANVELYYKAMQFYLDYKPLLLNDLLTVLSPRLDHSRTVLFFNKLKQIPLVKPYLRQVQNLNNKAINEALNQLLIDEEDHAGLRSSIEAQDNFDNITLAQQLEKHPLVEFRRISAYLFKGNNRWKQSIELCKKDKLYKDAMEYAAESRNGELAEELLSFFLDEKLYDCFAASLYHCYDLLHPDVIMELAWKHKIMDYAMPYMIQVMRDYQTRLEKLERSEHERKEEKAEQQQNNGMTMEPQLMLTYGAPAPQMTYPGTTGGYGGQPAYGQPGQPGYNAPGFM

T1: endogenous CED-6 (C. elegans (endogenous in whole animal lysate)) (UniProt O76337)
T1 sequence: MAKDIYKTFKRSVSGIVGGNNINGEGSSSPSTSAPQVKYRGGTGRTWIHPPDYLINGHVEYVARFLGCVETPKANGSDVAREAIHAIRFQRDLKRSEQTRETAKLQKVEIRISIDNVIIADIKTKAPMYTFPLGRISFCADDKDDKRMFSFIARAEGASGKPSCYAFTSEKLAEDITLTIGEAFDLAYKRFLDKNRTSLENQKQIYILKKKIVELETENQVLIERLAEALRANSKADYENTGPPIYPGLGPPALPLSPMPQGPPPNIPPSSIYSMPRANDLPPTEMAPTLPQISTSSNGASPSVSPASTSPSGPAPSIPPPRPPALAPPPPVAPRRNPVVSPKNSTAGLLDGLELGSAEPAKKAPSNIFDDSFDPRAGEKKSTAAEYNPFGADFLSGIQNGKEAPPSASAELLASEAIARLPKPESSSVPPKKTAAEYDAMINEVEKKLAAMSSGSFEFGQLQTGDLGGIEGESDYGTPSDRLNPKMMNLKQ

T2: GST-fused intracellular region of CED-1 (CED-1C, amino acids 933–1111) (C. elegans) (UniProt Q9XWD6)
T2 sequence: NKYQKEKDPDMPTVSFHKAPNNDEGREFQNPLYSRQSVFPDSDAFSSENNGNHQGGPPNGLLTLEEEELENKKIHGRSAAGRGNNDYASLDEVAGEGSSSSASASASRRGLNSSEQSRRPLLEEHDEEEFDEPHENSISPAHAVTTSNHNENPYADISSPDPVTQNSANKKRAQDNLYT

T3: GST-fused DYN-1 (C. elegans) (UniProt P39055)
T3 sequence: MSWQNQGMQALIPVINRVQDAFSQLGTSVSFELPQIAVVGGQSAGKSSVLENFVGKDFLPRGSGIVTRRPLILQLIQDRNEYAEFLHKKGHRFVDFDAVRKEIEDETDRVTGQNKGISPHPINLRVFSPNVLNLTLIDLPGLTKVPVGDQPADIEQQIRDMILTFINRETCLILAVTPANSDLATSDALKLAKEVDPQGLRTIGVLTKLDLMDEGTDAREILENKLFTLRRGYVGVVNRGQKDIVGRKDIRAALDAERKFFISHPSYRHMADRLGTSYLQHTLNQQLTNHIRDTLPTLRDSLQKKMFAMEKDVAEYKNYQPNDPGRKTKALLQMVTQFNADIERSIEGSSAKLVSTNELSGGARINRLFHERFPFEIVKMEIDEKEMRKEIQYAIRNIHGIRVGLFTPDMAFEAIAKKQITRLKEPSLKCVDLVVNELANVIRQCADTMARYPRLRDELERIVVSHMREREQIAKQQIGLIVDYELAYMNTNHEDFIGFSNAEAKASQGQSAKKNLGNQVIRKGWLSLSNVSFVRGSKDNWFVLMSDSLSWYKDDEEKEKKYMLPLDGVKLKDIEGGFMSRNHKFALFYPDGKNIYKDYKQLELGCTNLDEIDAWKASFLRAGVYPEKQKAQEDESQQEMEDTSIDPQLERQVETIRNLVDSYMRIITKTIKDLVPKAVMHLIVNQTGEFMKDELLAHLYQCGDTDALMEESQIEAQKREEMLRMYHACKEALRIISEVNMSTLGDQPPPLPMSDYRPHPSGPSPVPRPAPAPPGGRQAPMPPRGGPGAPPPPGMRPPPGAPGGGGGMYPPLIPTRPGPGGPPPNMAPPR

T4: GST-fused CED-6 (C. elegans) (UniProt O76337)
T4 sequence: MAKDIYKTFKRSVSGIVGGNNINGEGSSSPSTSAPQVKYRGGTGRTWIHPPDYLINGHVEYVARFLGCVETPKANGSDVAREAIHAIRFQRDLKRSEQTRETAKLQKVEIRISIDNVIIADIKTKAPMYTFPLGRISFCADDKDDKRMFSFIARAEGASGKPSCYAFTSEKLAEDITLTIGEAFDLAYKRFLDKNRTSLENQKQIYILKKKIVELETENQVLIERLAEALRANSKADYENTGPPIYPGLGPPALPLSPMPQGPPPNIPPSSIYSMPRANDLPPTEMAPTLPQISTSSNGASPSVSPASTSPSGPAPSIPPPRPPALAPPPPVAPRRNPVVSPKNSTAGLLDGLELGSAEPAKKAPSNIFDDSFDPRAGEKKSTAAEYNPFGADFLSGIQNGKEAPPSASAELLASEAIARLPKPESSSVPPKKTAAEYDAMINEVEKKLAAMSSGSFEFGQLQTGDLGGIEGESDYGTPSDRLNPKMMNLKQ

T5: GST-fused CED-9 (C. elegans) (UniProt P41958)
T5 sequence: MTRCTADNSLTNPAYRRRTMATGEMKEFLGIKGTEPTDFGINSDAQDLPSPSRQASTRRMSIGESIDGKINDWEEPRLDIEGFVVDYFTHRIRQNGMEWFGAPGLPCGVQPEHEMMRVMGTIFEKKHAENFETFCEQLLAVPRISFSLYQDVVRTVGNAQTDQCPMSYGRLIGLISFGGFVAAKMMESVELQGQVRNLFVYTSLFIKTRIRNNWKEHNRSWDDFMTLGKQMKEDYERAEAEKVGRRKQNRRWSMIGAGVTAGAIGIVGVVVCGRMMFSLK

T6: GST-fused LST-4 (C. elegans) (UniProt Q8I4E2)
T6 sequence: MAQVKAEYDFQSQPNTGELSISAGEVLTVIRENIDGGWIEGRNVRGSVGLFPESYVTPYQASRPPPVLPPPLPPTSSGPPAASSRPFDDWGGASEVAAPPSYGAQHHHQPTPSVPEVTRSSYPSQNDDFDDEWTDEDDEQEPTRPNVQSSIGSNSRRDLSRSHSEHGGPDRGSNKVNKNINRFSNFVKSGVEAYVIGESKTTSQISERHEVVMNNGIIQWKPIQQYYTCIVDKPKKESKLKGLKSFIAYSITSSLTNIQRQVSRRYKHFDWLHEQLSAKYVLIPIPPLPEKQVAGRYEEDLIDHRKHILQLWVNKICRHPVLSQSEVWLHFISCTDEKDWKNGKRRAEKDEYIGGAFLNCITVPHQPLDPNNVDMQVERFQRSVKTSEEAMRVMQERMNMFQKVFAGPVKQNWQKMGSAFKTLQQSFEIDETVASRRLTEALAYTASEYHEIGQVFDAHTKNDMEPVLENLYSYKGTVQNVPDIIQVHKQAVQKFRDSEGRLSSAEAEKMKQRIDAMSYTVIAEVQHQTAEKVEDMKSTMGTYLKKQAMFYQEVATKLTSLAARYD


Tests used:
[1] = target: T1, endogenous CED-6 (C. elegans (endogenous in whole animal lysate)); test: co-IP; IP of endogenous CED-1 or CED-6 with CED-1C or CED-6 antibody from whole cell lysates of N2 or GFP-fusion-expressing animals (controls: ced-1(e1735), ced-1 RNAi, ced-6 RNAi); blots with CED-1C, CED-6 and GFP antibodies
[2] = target: T2, GST-fused intracellular region of CED-1 (CED-1C, amino acids 933–1111) (C. elegans); test: pull-down; GST or GST fusion (3 µg) immobilized on glutathione-Sepharose beads, incubated with 35S-labeled in vitro translated protein at 4°C for ≥4 h, washed extensively; autoradiography; only the target purified
[3] = target: T3, GST-fused DYN-1 (C. elegans); test: as above
[4] = target: T4, GST-fused CED-6 (C. elegans); test: as above
[5] = target: T5, GST-fused CED-9 (C. elegans); test: as above
[6] = target: T6, GST-fused LST-4 (C. elegans); test: as above

Molecule | binding [1] | binding [2] | binding [3] | binding [4] | binding [5] | binding [6]
GFP::CHC-1 (from UniProt P34574 1-1681) | binds | – | – | – | – | –
DPY-23::GFP (protein, UniProt P35603 1-441) MIGGLFVYNHKGEVLISRIYRDDVTRNAVDAFRVNVIHARQQVRSPVTNMARTSFFHVKRGNVWICAVTRQNVNAAMVFEFLKRFADTMQSYFGKLNEENVKNNFVLIYELLDEILDFGYPQNTDPGVLKTFITQQGVRTADAPVPVTKEEQSQITSQVTGQIGWRREGIKYRRNELFLDVIEYVNLLMNQQGQVLSAHVAGKVAMKSYLSGMPECKFGINDKITIEGKSKPGSDDPNKASRAAVAIDDCQFHQCVKLTKFETEHAISFIPPDGEYELMRYRTTKDIQLPFRVIPLVREVSRNKMEVKVVVKSNFKPSLLAQKLEVRIPTPPNTSGVQLICMKGKAKYKAGENAIVWKIKRMAGMKESQISAEIDLLSTGNVEKKKWNRPPVSMNFEVPFAPSGLKVRYLKVFEPKLNYSDHDVIKWVRYIGRSGLYETRC | binds | – | – | – | – | –

Results, then the molecule that gave them:

binding [1] | binding [2] | binding [3] | binding [4] | binding [5] | binding [6] | Molecule
no binding | – | – | – | – | – | LST-4::GFP (protein, UniProt Q8I4E2 1-566) MAQVKAEYDFQSQPNTGELSISAGEVLTVIRENIDGGWIEGRNVRGSVGLFPESYVTPYQASRPPPVLPPPLPPTSSGPPAASSRPFDDWGGASEVAAPPSYGAQHHHQPTPSVPEVTRSSYPSQNDDFDDEWTDEDDEQEPTRPNVQSSIGSNSRRDLSRSHSEHGGPDRGSNKVNKNINRFSNFVKSGVEAYVIGESKTTSQISERHEVVMNNGIIQWKPIQQYYTCIVDKPKKESKLKGLKSFIAYSITSSLTNIQRQVSRRYKHFDWLHEQLSAKYVLIPIPPLPEKQVAGRYEEDLIDHRKHILQLWVNKICRHPVLSQSEVWLHFISCTDEKDWKNGKRRAEKDEYIGGAFLNCITVPHQPLDPNNVDMQVERFQRSVKTSEEAMRVMQERMNMFQKVFAGPVKQNWQKMGSAFKTLQQSFEIDETVASRRLTEALAYTASEYHEIGQVFDAHTKNDMEPVLENLYSYKGTVQNVPDIIQVHKQAVQKFRDSEGRLSSAEAEKMKQRIDAMSYTVIAEVQHQTAEKVEDMKSTMGTYLKKQAMFYQEVATKLTSLAARYD
– | binds | binds | binds | no binding | binds | ^35S-labeled APA-2 (protein, UniProt Q22601 1-925, 35S-labeled) MPAVKGDGMRGLAVFISDIRNCKSKEAELKRINKELANIRSKFKGDKTLDGYQKKKYVCKLLFIFLLGNDIDFGHMEAVNLLSSNKYTEKQIGYLFISVLIEQQSDLMKLIVQGIRNDLTSRNPVHVNLALQCISNMGSREMVEAFCTDLPKLLVSGETIDFVKQSAALCILKLFRNSPDSFQPGDYASRIVHLLNDSHMGVVTSAASLIEALSKKWPEEYKGAVPLAISRLSRIVTATYTDLQDYTYYFVPAPWLCVKLLRLLQNYPPPDDPSNKARLLECLEGILNKAQDAPKSKKVQHSNAKNAVLFEAIALIIHMDSEPQLLVRACNQLGTFLSHRETNLRYLALESMCLLATSEFSHDAVKKHQDTIINSLKTERDVSVRQRAVDLLYAMCDRSNANQIVAEMLAYLETADYSIREEMVLKVAILAEKYATDYTWYVDVILKLIRIAGDYVSEEVWYRVIQIVVNREDVQGYAAKTVFEALQRPACHENMVKVGGYILGEFGNFIAGDERSTAKIQFELLHSKFHLCSITTRCLLLTTYIKFCNLFPEIKPLVQQVFQTDHNLRNPDAELQQRSIEYLQMTKLASNDVLATILEVMPAFAEKESSLLAKLKKSKPQLEEIEREEKEKRSKPTAVMSEGSTSLVDFDSTNDTTASLADVFANNSGTGLGAQGDEVEIANKDDYLKFVTKSNAILWEDDYIQIGCKLETRNNLGRLGMFYGNKTSQPFNKFTPIITCPGALAVQLQAQAKPVEPVVAAGTQVQQLINFVCVQEFQKMPIMNIKFTFTDRAGAVQNFDKNFYLPLFISKFFEPTNMTSEQFFTRWKSLGAASQEAQKIFNALSPIEHATIESRLKGFGANLLTDVDPNPDNYVCAGIIHTQTQQIGTLIRLEPNKQAKMYRLTIRSSKDTVVQTLVDLLGNQF
– | no binding | binds | binds | no binding | binds | ^35S-labeled APB-1 (protein, UniProt Q9N4F3 1-955, 35S-labeled) MTDSKYFTTTKKGEIFELKNELNSDKKEKKKEAVKKVIASMTVGKDVSALFPDVVNCMQTDNVELKKLVYLYLMNYAKSQPDLAIMAVNTFVKDCEDPNPLIRALAVRTMGCIRVEKITEYLCDPLRRCMKDEDPYVRKTAAVCVAKLHDMNPALVKEQGFVELLNDLLSDANPMVVANAVAALTEMNEQQTVIEVNSQMVNKLLTALNECTEWGQVFILDALAGYTPRDERETQNICERISPRLAHANAAVVLSTVKVLMKLIDMMPADSDFITQLTKKLAPPMVTLLSAEPEIQYVALRNINLIVQKRPDILKQEMKVFFVKYNDPIYVKMEKLDIMIRLAQQNNIAQVLSELKEYATEVDVDFVRKSVRAIGRCAIKVEASSERCVQTLLELIQTKVNYVVQEAVVVIKDIFRKYPNRYESIISALCENLDTLDEPEARASMIWIIGEYAERIDNADELLESFVEGFHDENTQVQLQLLTAVVKLFLKRPGVAQALVQRVLSLATQDSDNPDLRDRGFIYWRLLSADPAAAKNVVLTEKPLISEETDLLEPSLLEQLVCHIGTLASVYHKPPSAFIDPAKAPLRQINPIPAAKFGSSLLDTSSTPNAARNGSAAAPTVIPSQDQVIADLLSLDLNAPAASANTGAFGGAMSGTTSMGGLDDLLGLGGDPMPAAPTNSASYNPFDGLGGLGGAAPAAPPSQQPASIGGLAEIFGSGGFGGSSGITYPKELWLDASKAMGMQVEGTFVRRGGKIFMEMTITNRAMQAISGFALQFNKNSFGLIPVEQVNPAPILPNQSQNYTIACDTTGAVQVTTPLTNLQVAIKNDINAFYFATTVPLLAYFREDGQMEKREFLEEWKSIPEQNEQQFTLQNTHNMNADAICTKLQQNNIHTVARRQVDNQQLLYHSVKYTNNLNVLSELKVNSQTTSITLSLKSKNLMAIANINEVFQALLN
